Source: PubChem BioAssay AID624296 (National Center for Advancing Translational Sciences (NCATS), 2012)
Screen size: about 350,000 compounds; about 9,900 (2.8%) were called active. The inconclusive results got no clear call from the source; some entries with a clear call stand among them for comparison. Calls come from the whole dose curve; as a rule, active = well fitted activation curve with a large enough effect; inconclusive = small, poorly fitted or top-dose-only effect; inactive = no such curve, though single readings can be large or run the other way. No potency is given beside an inconclusive call; the fits are too rough.

Test: A quantitative high throughput screen for small molecules that induce DNA re-replication in MCF 10a normal breast cells. Note: nearly all actives have a fitted effect of over 50% in size.
Conditions: MCF 10A DNA re-replication, Hoechst nuclear intensity, 48 h; series mostly up to 46.1 µM
Potency is the fitted concentration of half-maximal effect; tags give direction and shape of the fitted curve.

Structure (SMILES) | Potency
Cc1cc(C)c(NS(=O)(=O)c2ccc3c(c2)NC(=O)C(C)C(=O)N3)c(C)c1 (configuration not stated) | inconclusive [activator, full curve, poor fit]
O=C(Nc1ccc(N2CCOCC2)cc1)Nc1ccc2nc(-c3ccco3)c(-c3ccco3)nc2c1 | active: 9.2 µM
CCOC(=O)CSc1nnc(NCC(=O)OC(C)C)c(=O)[nH]1 | inconclusive [activator, single point]
COCCn1c(N)c(C(=O)OCc2ccccc2)c2nc3ccccc3nc21 | inconclusive [activator, single point]
Cn1c(CCNC(=O)c2ccco2)nc2cc(NS(=O)(=O)c3ccc(Cl)cc3)ccc21 | inconclusive [activator, partial curve, poor fit]
CCOC(=O)C1=C(C)OC(N)=C(C#N)C1c1c(C)nn(-c2ccccc2)c1Cl (configuration not stated) | inconclusive [activator, single point]
CCC(=O)N1N=C(c2cccs2)CC1c1ccco1 (configuration not stated) | inconclusive [activator, partial curve, poor fit]
CCN(C(=O)CSc1nnc(-c2cccs2)n1CC)C1CCS(=O)(=O)C1 (configuration not stated) | inactive
O=C(Nc1cccc(Cl)c1)c1ccc(F)c(S(=O)(=O)NCc2ccc3c(c2)OCO3)c1 | inconclusive [activator, single point]
Cc1ccc(-n2ncc3c(=O)n(CC(=O)N4CCCCCC4)cnc32)cc1 | inconclusive [activator, partial curve, poor fit]
NC(CC(=O)NC(c1ccccc1)(c1ccccc1)c1ccccc1)C(=O)O (configuration not stated) | inactive
CC(=O)N(C)c1ccc(NC(=S)Nc2ccc(C(C)C)cc2)cc1 | inconclusive [activator, single point]
Cc1cc(Cl)c(S(=O)(=O)N2CCCCCC2)cc1OCC(=O)NC1CCCCC1 | inactive
CCOc1cc(CNc2cccc3ccccc23)cc(Br)c1OCC(=O)NC(C)(C)C | inactive
CC(C)(C)c1ccc(C(=O)N/C(=C\c2cccc([N+](=O)[O-])c2)C(=O)Nc2cccc(C(=O)O)c2)cc1 | inconclusive [activator, partial curve, poor fit]
Cc1ccc(CNC(=O)c2cccc3c2C(=O)c2ccc(N4CCCCC4)cc2S3(=O)=O)cc1 | inconclusive [activator, partial curve, poor fit]
CC12CCC(C(=O)N(NC(=O)c3ccc(O)cc3)C1=O)C2(C)C (configuration not stated) | inconclusive [activator, single point]
O=C(CN1C(=O)C2C3c4ccccc4C(c4ccccc43)C2C1=O)Nc1cccc(C(=O)O)c1 (configuration not stated) | inconclusive [activator, partial curve, poor fit]
CN(Cc1ccccc1)C(=O)c1cccc(NC(=O)Cc2ccc(NC(=O)C3CCN(C(=O)C4CCCC4)CC3)cc2)c1 | inconclusive [activator, partial curve, poor fit]
Cc1nn(Cc2ccccc2)c(C)c1C(=O)N1CCN(CC(=O)Nc2ccccc2Cl)CC1 | inactive
COc1ccc(N2CCN(C(=O)CC34CC5CC(CC(C5)C3)C4)CC2)c([N+](=O)[O-])c1 | inconclusive [activator, partial curve]
Cn1c(C(=O)N2CCC(C(=O)NCc3ccccc3)CC2)cc2sccc21 | inactive
CCOC(=O)CN1C(=O)N[C@H](c2ccc(Br)cc2)C(C(C)=O)=C1C | active: 6.51 µM

Structure (SMILES) | Potency
CCN1CCCC1CNC(=O)C1CCN(Cc2nc(-c3cccc(Br)c3)oc2C)CC1 (configuration not stated) | inconclusive [activator, single point]
COc1ccc(C2CC(c3ccccc3)=NN2c2ccc(S(N)(=O)=O)cc2)cc1 (configuration not stated) | active: 0.58 µM
CCOC(=O)c1c(NC(=O)CSc2ncnc3ccccc23)sc(C(C)=O)c1C | inconclusive [activator, single point]
Cc1csc2nc3cc(C(N)=O)ccc3c(=O)n12 | inactive
CC(C)COP(=O)(OCC(C)C)C(Nc1ccccc1)c1ccc2c(c1)OCO2 (configuration not stated) | inconclusive [activator, single point]
NC(=O)C1CCN(CC(=O)Nc2ccccc2Sc2ccccc2)CC1 | inconclusive [activator, partial curve, poor fit]
Cc1ccc(C(=O)Nc2cc3c(cc2N2CCCCC2)n(C)c(=O)n3C)cc1 | inconclusive [activator, partial curve, poor fit]
Nc1ccc2c(c1Cl)C(=O)c1ccc(N)c(Cl)c1C2=O | inactive
Cc1cc(/C=C2\SC(=S)N(C)C2=O)c(C)n1-c1ccccc1O | active: 13 µM
O=C(NC1CCN(Cc2ccccc2)CC1)c1cccc(S(=O)(=O)Nc2ccc(Br)cc2)c1 | inconclusive [activator, partial curve, poor fit]
CCNC(=S)NS(=O)(=O)c1ccc(CC)cc1 | inactive
Cc1ccc(S(=O)(=O)N2CCC(C(=O)NCCCn3ccnc3)CC2)cc1 | inconclusive [activator, partial curve]
O=C(COC(=O)c1c2ccccc2cc2ccccc12)Nc1ncc(C(F)(F)F)cc1Cl | inconclusive [activator, full curve, poor fit]
COC(=O)c1ccccc1NC(=O)C(C)Oc1ccccc1 (configuration not stated) | inconclusive [activator, partial curve, poor fit]
CCCCc1nnc(NC(=O)CCS(=O)(=O)c2ccc(Cl)cc2)s1 | inconclusive [activator, single point]
CCCCCn1c(CN2CCN(C(=O)c3ccco3)CC2)nc2c1c(=O)n(C)c(=O)n2C | inactive
O=c1[nH]c(CSc2ccccn2)nc2ccccc12 | inactive
CC(=O)NCc1ccc(-c2csc(-c3cccs3)n2)cc1 | inconclusive [activator, single point]
CSC1=NSC2=NC(=O)/C(=C\c3cccs3)C(=N)N12 | inconclusive [activator, partial curve, poor fit]
O=C(CCSc1ccccc1)Nc1ccccc1C(=O)N1CCCC1 | inactive
Cc1cc(Br)ccc1OCCCCN1CCC(C)CC1 | active: 7.31 µM
CCC(c1nnnn1CCOC)N1CCN(c2cccc(C(F)(F)F)c2)CC1 (configuration not stated) | inconclusive [activator, partial curve, poor fit]
O=C(Cc1ccc(S(=O)(=O)N2CCCCC2)cc1)NCc1ccc(Cl)cc1 | inconclusive [activator, partial curve, poor fit]

Structure (SMILES) | Potency
CCN1C(=O)CSc2ccc(C(=O)NC3CCCCC3)cc21 | inactive
Cc1cc(C(=O)OCC(=O)NCc2ccco2)c(C)n1-c1ccccc1 | active: 6.31 µM
O=C(Nc1ccn(CCCNCCCN2CCCC2=O)c(=O)n1)OCc1ccccc1 | inactive
CCCCN(CCCC)CC(O)Cn1c2ccccc2c(=O)c2ccccc21 (configuration not stated) | active: 18.4 µM
Nc1ncnc(Sc2ncccn2)c1[N+](=O)[O-] | inconclusive [activator, partial curve, poor fit]
CCOC(=O)C1=C(C)N=c2s/c(=C/c3ccc(OCC(=O)O)cc3)c(=O)n2C1c1cc(OC)c(OC)c(OC)c1 (configuration not stated) | inactive
O=C(COc1ccc(C(=O)Nc2ccc(Cl)cc2)cc1)NCc1ccccc1 | inconclusive [activator, single point]
C=CCc1cccc(CNc2nc3ccccc3n2CCC)c1O | inconclusive [activator, single point]
CCc1ccc(C(=O)Nc2nc(C)cs2)s1 | inconclusive [activator, partial curve, poor fit]
CCCCCOC(=O)c1ccc(NC(=O)c2ccco2)cc1 | inconclusive [activator, single point]
CCc1sc(-c2ccccc2)nc1C(=O)OC | inconclusive [activator, partial curve, poor fit]
Cc1cc(NC(=O)C(C)SCC(=O)NCc2ccc(F)cc2)no1 (configuration not stated) | inconclusive [activator, single point]
CCN(Cc1ccccc1)c1ccc(/C=N/N2CCOCC2)cc1 | inactive
COc1ccc(NC(=O)CCCCC(=O)Nc2ccc(OC)cc2)cc1 | inconclusive [activator, single point]
COc1cc(C(=O)O[C@H]2C/C(C)=C/CC[C@]3(C)O[C@@H]3C(O)C2C(C)C)cc(OC)c1OC (some centres not stated) | inconclusive [activator, partial curve, poor fit]
CC(C)Oc1ccc(C(=O)Nc2cc(S(=O)(=O)N3CCOCC3)ccc2N2CCOCC2)cc1 | inconclusive [activator, single point]
COC(=O)Cc1cc(=O)n2[nH]c(SC)nc2n1 | inconclusive [activator, single point]
C=CCN(CC=C)C(=S)NC(=O)c1ccc([N+](=O)[O-])cc1 | inconclusive [activator, partial curve]
CC1(c2ccc3c(c2)OCCO3)NC(=O)N(CC(=O)Nc2ccccc2)C1=O (configuration not stated) | inactive
CC1(C)Cc2c(c(N3CCOCC3)nc3snc(N)c23)CO1 | active: 10 µM
O=C(CN1CCN(c2ccc(C(F)(F)F)cn2)CC1)NCc1ccc2c(c1)OCO2 | inactive
